Among the data in paper PMC12820563, “FoxP3 forms a head-to-head dimer in vivo and stabilizes its multimerization on adjacent microsatellites” are binding signal values, retold here.

This is one part of the list.

This experiment concerns the target T1, MBP-FoxP1dN (Mus musculus, UniProt P58462 326-579).
T1 sequence: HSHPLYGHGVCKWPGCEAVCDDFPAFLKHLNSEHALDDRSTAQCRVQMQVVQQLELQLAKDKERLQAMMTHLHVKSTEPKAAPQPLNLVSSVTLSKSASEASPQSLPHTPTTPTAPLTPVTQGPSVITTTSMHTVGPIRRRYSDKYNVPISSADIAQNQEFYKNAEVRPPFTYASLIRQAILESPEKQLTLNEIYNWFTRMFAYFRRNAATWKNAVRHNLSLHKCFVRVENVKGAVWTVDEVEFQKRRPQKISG
Put plainly: PD-seq (MBP pull-down with sequencing); 20 mM Tris-HCl pH 7.5, 100 mM NaCl, 1.5 mM MgCl2, 0.4 uM protein, 0.1 uM dsDNA library, 30 min, room temperature, amylose pull-down; high values mean tight binding. As to conditions: protein: recombinant; tags: His6-MBP; chain copies: 2; dsDNA, one strand shown. In short, it runs like this: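 E. coli-expressed mouse FoxP3 or FoxP1 fragment, N-terminus removed and tagged with His6-MBP, was used at 0.4 µM against 0.1 µM of a Klenow-filled degenerate double-stranded DNA library. After 30 min at room temperature in Tris pH 7.5 buffer with NaCl and MgCl2, complexes were pulled down on amylose resin and washed three times. Binding is pull-down over input reads-per-million enrichment from pooled replicates of the proteinase K-released, PCR-barcoded, Illumina-sequenced DNA.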
In the case of “GATGATTGTTCTCCCAGCTGATGAATTAAATGCCTCGAGTAAACAAATTTTCCTAATCTTTCTGTTCAAGCGCCATCTAC”, the binding signal is 1.03 RPM ratio (pull-down/input). For “GATGATTGTTCTCCCAGCTGATGAATTCTCCCACTCGAGTAAACAAATTTTCCTAATCTTTCTGTTCAAGCGCCATCTAC” the value was 0.903 RPM ratio (pull-down/input). Next, “GATGATTGTTCTCCCAGCTGATGAATTCCATCTATCGAGTAAACAAATTTTCCTAATCTTTCTGTTCAAGCGCCATCTAC”: 0.854 RPM ratio (pull-down/input). As to “GATGATTGTTCTCCCAGCTGATGAATTGACCGCGTCGAGTAAACAAATTTTCCTAATCTTTCTGTTCAAGCGCCATCTAC”, the binding signal is 0.965 RPM ratio (pull-down/input). Take “GATGATTGTTCTCCCAGCTGATGAATTGCGCACATCGAGTAAACAAATTTTCCTAATCTTTCTGTTCAAGCGCCATCTAC”: the binding signal is 1.26 RPM ratio (pull-down/input).

For the sequence “GATGATTGTTCTCCCAGCTGATGAATTGGTGTCTTCGAGTAAACAAATTTTCCTAATCTTTCTGTTCAAGCGCCATCTAC”, the binding signal is 0.994 RPM ratio (pull-down/input). For “GATGATTGTTCTCCCAGCTGATGAATTTACATTATCGAGTAAACAAATTTTCCTAATCTTTCTGTTCAAGCGCCATCTAC”, the binding signal was 1.61 RPM ratio (pull-down/input). For “GATGATTGTTCTCCCAGCTGATGAATTCTTGCTATCGAGTAAACAAATTTTCCTAATCTTTCTGTTCAAGCGCCATCTAC” the value was 1.09 RPM ratio (pull-down/input); for “GATGATTGTTCTCCCAGCTGATGAATTAAGGACTTCGAGTAAACAAATTTTCCTAATCTTTCTGTTCAAGCGCCATCTAC”, 0.768 RPM ratio (pull-down/input); for “GATGATTGTTCTCCCAGCTGATGAATTGCCCGCTTCGAGTAAACAAATTTTCCTAATCTTTCTGTTCAAGCGCCATCTAC”, 0.903 RPM ratio (pull-down/input). With “GATGATTGTTCTCCCAGCTGATGAATTTCGACAATCGAGTAAACAAATTTTCCTAATCTTTCTGTTCAAGCGCCATCTAC”, the binding signal was 1.18 RPM ratio (pull-down/input). Regarding “GATGATTGTTCTCCCAGCTGATGAATTATTAAATTCGAGTAAACAAATTTTCCTAATCTTTCTGTTCAAGCGCCATCTAC”, the binding signal was 1.23 RPM ratio (pull-down/input).

In the case of “GATGATTGTTCTCCCAGCTGATGAATTCCCGTTCTCGAGTAAACAAATTTTCCTAATCTTTCTGTTCAAGCGCCATCTAC”, the binding signal is 0.776 RPM ratio (pull-down/input). As for “GATGATTGTTCTCCCAGCTGATGAATTAACGTCGTCGAGTAAACAAATTTTCCTAATCTTTCTGTTCAAGCGCCATCTAC”, the binding signal was 0.854 RPM ratio (pull-down/input). Next, “GATGATTGTTCTCCCAGCTGATGAATTGAGTCCATCGAGTAAACAAATTTTCCTAATCTTTCTGTTCAAGCGCCATCTAC”: 0.869 RPM ratio (pull-down/input). As for “GATGATTGTTCTCCCAGCTGATGAATTAGCTTGCTCGAGTAAACAAATTTTCCTAATCTTTCTGTTCAAGCGCCATCTAC”, the binding signal was 0.943 RPM ratio (pull-down/input). Next, “GATGATTGTTCTCCCAGCTGATGAATTCCGTCATTCGAGTAAACAAATTTTCCTAATCTTTCTGTTCAAGCGCCATCTAC”: 0.932 RPM ratio (pull-down/input); “GATGATTGTTCTCCCAGCTGATGAATTGATGAAGTCGAGTAAACAAATTTTCCTAATCTTTCTGTTCAAGCGCCATCTAC”: 0.965 RPM ratio (pull-down/input).

As to “GATGATTGTTCTCCCAGCTGATGAATTGTGTACTTCGAGTAAACAAATTTTCCTAATCTTTCTGTTCAAGCGCCATCTAC”, the binding signal was 1.84 RPM ratio (pull-down/input). For “GATGATTGTTCTCCCAGCTGATGAATTTAGGCATTCGAGTAAACAAATTTTCCTAATCTTTCTGTTCAAGCGCCATCTAC” the value was 1.19 RPM ratio (pull-down/input); for “GATGATTGTTCTCCCAGCTGATGAATTGTTAGAATCGAGTAAACAAATTTTCCTAATCTTTCTGTTCAAGCGCCATCTAC”, 1.12 RPM ratio (pull-down/input). As to “GATGATTGTTCTCCCAGCTGATGAATTCGCAGAGTCGAGTAAACAAATTTTCCTAATCTTTCTGTTCAAGCGCCATCTAC”, the binding signal was 0.831 RPM ratio (pull-down/input). For “GATGATTGTTCTCCCAGCTGATGAATTGAGCATGTCGAGTAAACAAATTTTCCTAATCTTTCTGTTCAAGCGCCATCTAC” the value was 0.889 RPM ratio (pull-down/input); for “GATGATTGTTCTCCCAGCTGATGAATTGGAATTGTCGAGTAAACAAATTTTCCTAATCTTTCTGTTCAAGCGCCATCTAC”, 0.993 RPM ratio (pull-down/input). Turning to “GATGATTGTTCTCCCAGCTGATGAATTATCTATCTCGAGTAAACAAATTTTCCTAATCTTTCTGTTCAAGCGCCATCTAC”, the binding signal was 0.919 RPM ratio (pull-down/input). Turning to “GATGATTGTTCTCCCAGCTGATGAATTTAAGAGCTCGAGTAAACAAATTTTCCTAATCTTTCTGTTCAAGCGCCATCTAC”, the binding signal was 0.768 RPM ratio (pull-down/input).

In the case of “GATGATTGTTCTCCCAGCTGATGAATTGAGTTTGTCGAGTAAACAAATTTTCCTAATCTTTCTGTTCAAGCGCCATCTAC”, the binding signal is 1.2 RPM ratio (pull-down/input). Turning to “GATGATTGTTCTCCCAGCTGATGAATTATATAAGTCGAGTAAACAAATTTTCCTAATCTTTCTGTTCAAGCGCCATCTAC”, the binding signal is 1.13 RPM ratio (pull-down/input).

In the case of “GATGATTGTTCTCCCAGCTGATGAATTCGTTGCTTCGAGTAAACAAATTTTCCTAATCTTTCTGTTCAAGCGCCATCTAC”, the binding signal is 0.913 RPM ratio (pull-down/input).

“GATGATTGTTCTCCCAGCTGATGAATTGTACGCATCGAGTAAACAAATTTTCCTAATCTTTCTGTTCAAGCGCCATCTAC”: the binding signal is 1.12 RPM ratio (pull-down/input).

Turning to “GATGATTGTTCTCCCAGCTGATGAATTCGACCATTCGAGTAAACAAATTTTCCTAATCTTTCTGTTCAAGCGCCATCTAC”, the binding signal was 0.941 RPM ratio (pull-down/input). As for “GATGATTGTTCTCCCAGCTGATGAATTGGAGGCCTCGAGTAAACAAATTTTCCTAATCTTTCTGTTCAAGCGCCATCTAC”, the binding signal was 0.81 RPM ratio (pull-down/input).

Turning to “GATGATTGTTCTCCCAGCTGATGAATTACCTATTTCGAGTAAACAAATTTTCCTAATCTTTCTGTTCAAGCGCCATCTAC”, the binding signal is 1.15 RPM ratio (pull-down/input).

As for “GATGATTGTTCTCCCAGCTGATGAATTTGGTAGCTCGAGTAAACAAATTTTCCTAATCTTTCTGTTCAAGCGCCATCTAC”, the binding signal was 0.852 RPM ratio (pull-down/input). With “GATGATTGTTCTCCCAGCTGATGAATTTCGAAAATCGAGTAAACAAATTTTCCTAATCTTTCTGTTCAAGCGCCATCTAC”, the binding signal was 1.07 RPM ratio (pull-down/input). For “GATGATTGTTCTCCCAGCTGATGAATTATCGGCCTCGAGTAAACAAATTTTCCTAATCTTTCTGTTCAAGCGCCATCTAC” the value was 0.947 RPM ratio (pull-down/input); for “GATGATTGTTCTCCCAGCTGATGAATTGGTCGGCTCGAGTAAACAAATTTTCCTAATCTTTCTGTTCAAGCGCCATCTAC”, 0.809 RPM ratio (pull-down/input). Next, “GATGATTGTTCTCCCAGCTGATGAATTCCAGCCATCGAGTAAACAAATTTTCCTAATCTTTCTGTTCAAGCGCCATCTAC”: 0.85 RPM ratio (pull-down/input); “GATGATTGTTCTCCCAGCTGATGAATTGCACCGCTCGAGTAAACAAATTTTCCTAATCTTTCTGTTCAAGCGCCATCTAC”: 1.04 RPM ratio (pull-down/input); “GATGATTGTTCTCCCAGCTGATGAATTGCCCAGATCGAGTAAACAAATTTTCCTAATCTTTCTGTTCAAGCGCCATCTAC”: 0.91 RPM ratio (pull-down/input).
